# Assay results taken from the supplement of paper PMC12217912.
# The list shows a part of the results. Sequences were assembled here from the parent chain. Inactive controls read about 0.05.
# B1: TEV protease; numbered along this chain (parent)
# chain: MGESLFKGPRDYNPISSSICHLTNESDGHTTSLYGIGFGPFIITNKHLFRRNNGTLVVQSLHGVFKVKDTTTLQQHLVDGRDMIIIRMPKDFPPFPQKLKFREPQREERICLVTTNFQTKSMSSMVSDTSCTFPSGDGIFWKHWIQTKDGQCGSPLVSTRDGFIVGIHSASNFTNTNNYFTSVPKNFMELLTNQEAQQWVSGWRLNADSVLWGGHKVFMVKPEEPFQPVKEATQL
# Variants of: B1
# Assay: raw area under fraction-flipped curve 0-4 h after induction (AUC4h, not background-subtracted), DNA-recorder readout of cleavage of the substrate (dimensionless); higher = more cleavage of the substrate by the protease variant
# Conditions: temperature: 34 °C; time window: 0-4 h after rhamnose induction
# Procedure: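 In vivo DNA recorder in E. coli TOP10(DE3) ΔrhaA at 34 °C. Each TEVp single-site mutant (parent TEVp 0) is paired with a single-site variant of the 7-mer TEVs (canonical ENLYFQ|S). The substrate sits between flexible linkers in a Bxb1-sfGFP-TEVs-SsrA fusion, so cleavage stabilises Bxb1 and speeds flipping of a recombination array, read by NGS. The value is the raw area under the fraction-flipped curve over 0-4 h after rhamnose induction (AUC4h), with ≥20 reads per time point. It is not background-subtracted; inactive controls average about 0.047.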
# 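Further: Bxb1 expression induced with 0.2% (w/v) L-rhamnose at OD600 near 0.5, cultures sampled hourly, flipped fraction per protease–substrate barcode pair counted by paired-end Illumina sequencing.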
Variant,area with substrate ENLYCQS,area with substrate ENLYDQS,area with substrate ENLYEQS,area with substrate ENLYGQS,area with substrate ENLYIQS,area with substrate ENLYKQS,area with substrate ENLYMQS,area with substrate ENLYNQS,area with substrate ENLYPQS,area with substrate ENLYQQS,area with substrate ENLYRQS,area with substrate ENLYTQS,area with substrate ENLYVQS,area with substrate ENLYWQS,area with substrate ENLYYQS,area with substrate ENLYHQS,area with substrate ENLYSQS,area with substrate ENLYLQS
T70L,0.0927,0.0645,0.0683,0.059,0.107,0.0638,0.0717,0.0836,0.0552,0.0256,0.0735,0.0566,0.079,0.0626,0.0457,,,
E223Y,0.0776,0.0729,0.0837,0.0602,0.122,0.0393,0.0769,0.068,,0.0671,0.0505,,,0.083,0.0768,0.0643,0.0659,
P94A,,0.0588,0.0632,,,,,,,,,,0.116,0.0961,,0.076,,
A170T,,0.063,,,,,,0.078,,,,,,0.051,,,0.0616,
F95H,0.0735,0.0603,0.0448,0.0694,0.0983,0.0686,0.0991,0.0577,0.0575,,0.0742,,0.0836,,,0.0589,,
F95A,0.0875,0.0551,0.0602,,0.0994,0.0641,0.0573,,0.0647,,0.0492,0.0604,,,0.0743,0.0695,0.0701,0.0626
Q146P,,0.0472,,0.0651,0.121,0.0788,0.102,,0.0853,0.0123,0.0646,0.13,0.13,0.093,,0.09,0.0503,0.0932
G63T,,0.0526,0.0646,0.0495,,0.0584,0.0809,0.058,0.0944,0.0569,0.0598,,0.127,0.0725,,0.0762,,0.0913
G63L,0.0752,0.0885,0.0633,0.059,0.102,0.0469,,,0.055,0.0599,0.0577,,0.104,0.077,0.0565,0.0557,0.0809,0.0711
N177P,,0.07,0.0656,0.0553,0.0469,0.0471,0.0768,0.0567,0.0627,0.0604,0.0667,,,0.058,0.0683,0.0544,,0.0547
T30R,0.0694,0.0416,0.0743,0.0605,0.122,0.0749,0.0919,0.0838,0.0822,0.0561,0.0727,,0.124,0.0736,,0.0714,0.0769,0.0857
P225K,0.0949,,0.0531,0.0757,,0.0643,0.0608,0.054,0.0677,,0.0707,0.0699,0.0959,,,0.0726,0.0705,
S26E,0.0724,0.0619,0.0773,0.0907,0.121,0.0683,0.0647,0.0494,0.0368,0.0695,0.0569,0.0598,,0.0655,,0.0567,0.074,
S135F,0.0775,0.0623,0.0574,0.0563,0.0659,0.0511,0.0547,0.0555,0.0687,0.0648,0.0554,,0.0651,0.0566,,0.053,,0.0537
